Data as given in article PMC3431386, “Swi1 Associates with Chromatin through the DDT Domain and Recruits Swi3 to Preserve Genomic Integrity” (PLoS ONE, 2012).
Positions count from the first letter of the chain named. Results are given in words; binding and its absence hold for the method and conditions named. For part of these data: In cells and extracts the contact can be indirect. Some results given as binding are weak or reduced against the parent protein; the word gives no strength. Tags and fused reporters may be left off the sequences shown.

T1: Swi1-h2 (swi1 F349A, L352A, L356A-5FLAG) (S. pombe) (UniProt Q9UUM2)
T1 sequence: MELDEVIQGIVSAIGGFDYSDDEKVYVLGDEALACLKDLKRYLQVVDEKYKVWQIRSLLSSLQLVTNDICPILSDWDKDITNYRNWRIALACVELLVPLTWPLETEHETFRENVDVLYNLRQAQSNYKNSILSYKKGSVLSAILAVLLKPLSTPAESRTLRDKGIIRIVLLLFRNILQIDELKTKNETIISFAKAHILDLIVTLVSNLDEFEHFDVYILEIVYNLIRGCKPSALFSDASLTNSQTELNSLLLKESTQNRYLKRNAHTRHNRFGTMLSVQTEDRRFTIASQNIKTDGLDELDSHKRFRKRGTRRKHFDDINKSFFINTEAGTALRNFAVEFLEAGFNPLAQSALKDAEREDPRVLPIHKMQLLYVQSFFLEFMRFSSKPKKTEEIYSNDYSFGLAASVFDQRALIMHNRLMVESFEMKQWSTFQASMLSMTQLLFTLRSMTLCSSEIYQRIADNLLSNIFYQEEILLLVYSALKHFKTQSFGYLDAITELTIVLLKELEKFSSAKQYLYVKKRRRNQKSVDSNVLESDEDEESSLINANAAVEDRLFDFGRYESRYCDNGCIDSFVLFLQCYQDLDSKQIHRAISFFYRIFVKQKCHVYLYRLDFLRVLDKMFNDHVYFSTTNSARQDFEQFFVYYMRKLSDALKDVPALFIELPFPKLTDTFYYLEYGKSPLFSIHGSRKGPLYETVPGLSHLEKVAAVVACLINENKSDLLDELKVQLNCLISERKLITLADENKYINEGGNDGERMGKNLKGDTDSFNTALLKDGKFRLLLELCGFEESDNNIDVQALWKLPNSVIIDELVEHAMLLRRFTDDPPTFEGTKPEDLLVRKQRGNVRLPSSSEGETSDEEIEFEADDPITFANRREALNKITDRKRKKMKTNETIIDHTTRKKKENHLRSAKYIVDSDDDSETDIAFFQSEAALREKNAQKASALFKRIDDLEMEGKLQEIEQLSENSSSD

T2: Swi1ΔDDT (swi1 ΔDDT-5FLAG, deletion of amino acids 323–378) (S. pombe) (UniProt Q9UUM2)
T2 sequence: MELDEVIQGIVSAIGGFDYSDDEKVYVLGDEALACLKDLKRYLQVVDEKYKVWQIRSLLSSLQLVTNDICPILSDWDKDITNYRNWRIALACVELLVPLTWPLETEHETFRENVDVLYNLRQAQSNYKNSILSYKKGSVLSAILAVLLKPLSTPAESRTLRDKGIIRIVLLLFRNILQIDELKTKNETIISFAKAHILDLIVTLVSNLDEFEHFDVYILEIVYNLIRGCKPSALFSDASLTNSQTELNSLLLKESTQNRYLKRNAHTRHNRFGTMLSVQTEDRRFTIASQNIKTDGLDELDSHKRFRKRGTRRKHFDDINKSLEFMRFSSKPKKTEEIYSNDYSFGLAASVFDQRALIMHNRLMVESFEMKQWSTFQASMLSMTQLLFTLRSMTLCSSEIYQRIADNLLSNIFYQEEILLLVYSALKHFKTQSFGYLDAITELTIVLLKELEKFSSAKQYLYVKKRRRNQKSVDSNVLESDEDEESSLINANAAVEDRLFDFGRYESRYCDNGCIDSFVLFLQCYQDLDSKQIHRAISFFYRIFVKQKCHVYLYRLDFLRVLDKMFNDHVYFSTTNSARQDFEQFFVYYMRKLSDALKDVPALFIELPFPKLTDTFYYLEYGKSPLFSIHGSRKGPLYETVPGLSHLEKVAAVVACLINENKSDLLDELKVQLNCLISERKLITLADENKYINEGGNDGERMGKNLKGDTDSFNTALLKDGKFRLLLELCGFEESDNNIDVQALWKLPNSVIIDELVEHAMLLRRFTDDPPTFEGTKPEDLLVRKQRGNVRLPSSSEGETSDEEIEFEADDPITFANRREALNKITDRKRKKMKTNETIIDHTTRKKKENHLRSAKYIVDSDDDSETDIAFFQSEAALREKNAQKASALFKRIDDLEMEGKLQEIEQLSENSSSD

T3: Swi1-5FLAG (wild type, expressed from the swi1 promoter) (S. pombe) (UniProt Q9UUM2)
T3 sequence: T1 sequence with A349F, A352L, A356L

T4: Swi1-h1 (swi1 L333A, F336A, F340A-5FLAG) (S. pombe) (UniProt Q9UUM2)
T4 sequence: T1 sequence with L333A, F336A, F340A, A349F, A352L, A356L

T5: Swi1 (500–800)-5FLAG (S. pombe) (UniProt Q9UUM2)
T5 sequence: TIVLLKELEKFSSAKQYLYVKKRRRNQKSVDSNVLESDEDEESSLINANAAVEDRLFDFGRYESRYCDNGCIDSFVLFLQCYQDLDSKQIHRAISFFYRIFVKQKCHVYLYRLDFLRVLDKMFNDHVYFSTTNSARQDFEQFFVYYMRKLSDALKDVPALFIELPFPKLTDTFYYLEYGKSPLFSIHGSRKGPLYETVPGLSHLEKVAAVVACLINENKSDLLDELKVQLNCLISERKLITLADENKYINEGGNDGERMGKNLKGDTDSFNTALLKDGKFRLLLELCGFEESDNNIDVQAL

T6: Swi1 (1–300)-5FLAG (S. pombe) (UniProt Q9UUM2)
T6 sequence: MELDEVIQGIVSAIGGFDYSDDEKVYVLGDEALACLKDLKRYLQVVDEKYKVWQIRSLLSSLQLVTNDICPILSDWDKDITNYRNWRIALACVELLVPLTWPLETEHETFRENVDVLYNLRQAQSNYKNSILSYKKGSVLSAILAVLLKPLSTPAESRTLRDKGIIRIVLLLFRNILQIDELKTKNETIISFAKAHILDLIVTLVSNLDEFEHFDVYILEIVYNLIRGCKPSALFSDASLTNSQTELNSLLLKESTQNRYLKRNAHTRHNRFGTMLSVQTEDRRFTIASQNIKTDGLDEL

B1: Swi3-13Myc (protein, UniProt O14350 1-181)
chain: MSTAASDSGVEKLVEENKREEVKKNEEEKEFDLGLEENPDSVKKPRKRLAKFDEERLISENGIPKLRKMMRKVKLKGKGHEAKDLKQLLGMYHIWTHELYPRATFDDSISYLKTLGKHRSVKVRRRGWINEIAVENGSDSNASLFTGPSSNSLVNLTSGDPYVQDTADDAFVAQDNDTQLE
B2: hexahistidine-tagged Swi3 (His6-Swi3) (natural protein, S. pombe, UniProt O14350 1-181, looked up)
chain: B1 chain
notes: Swi3, S. pombe; swi3 open reading frame in the NdeI/XhoI site of pET28a; also called recombinant Swi3; pET28a-Swi3; source: E. coli BL21(DE3), purified (Ni-NTA)

Assays:
[1] = molecular target: T1, Swi1-h2 (swi1 F349A, L352A, L356A-5FLAG) (S. pombe); experiment: co-IP; Swi1-FLAG immunoprecipitated from S. pombe protein extracts, blots probed with anti-FLAG M2 and anti-Myc 9E10
[2] = molecular target: T2, Swi1ΔDDT (swi1 ΔDDT-5FLAG, deletion of amino acids 323–378) (S. pombe); experiment: as above
[3] = molecular target: T3, Swi1-5FLAG (wild type, expressed from the swi1 promoter) (S. pombe); experiment: as above
[4] = molecular target: T4, Swi1-h1 (swi1 L333A, F336A, F340A-5FLAG) (S. pombe); experiment: as above
[5] = molecular target: T5, Swi1 (500–800)-5FLAG (S. pombe); experiment: pull-down; anti-FLAG M2 agarose beads bound to Swi1-FLAG (purified from swi3Δ cells) mixed with His6-Swi3 in lysis buffer A (50 mM Tris-HCl pH 8.0, 150 mM NaCl, 0.1% NP-40, 10% glycerol), 1 hour at 4°C, washed three times, Western blotting with anti-FLAG or His6 antibody; both purified
[6] = molecular target: T6, Swi1 (1–300)-5FLAG (S. pombe); experiment: as above

Binder	binding [1]	binding [2]	binding [3]	binding [4]	binding [5]	binding [6]
B1	binds	no binding	binds	no binding	–	–
B2	–	–	–	–	no binding	no binding
